# PubChem BioAssay (NCATS)
# The other results are listed elsewhere or left out. These are further read-outs of the screen, such as a control signal, another cell line or another target. No call is given for them. For some assays here: Most of these compounds were active or inconclusive in the main read-out, so they are no random draw. The note in brackets gives the kind of curve behind each potency; many fits are weak.
# Assays:
# [1] = biological target: Histamine N-methyltransferase (Homo sapiens) (UniProt P50135); test: Confirmatory Screen for Target Class Profiling of Small Molecule Inhibitors of Methyltransferases (AID 1745852); conditions: MTase-Glo luminescence, SAH detection, recombinant enzyme; measured here: HNMT inhibition potency;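 further: inhibitor potency for blocking SAH production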
# [2] = qHTS drug screen for cell cycle checkpoint inhibitors in PARPi-resistant BRCA-mutant ovarian cancer cell lines. (AID 1963452); conditions: PEO1/OlaR viability, CellTiter-Glo luminescence, 96 h
# Method in brief: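 PEO1, PEO4 and PEO1/OlaR ovarian cancer cells, 600 per well, exposed 96 h at 37C to a dilution series. Viability read by CellTiter-Glo luminescence, normalized to DMSO and empty wells; activity summarized as Z-AUC.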
# [3] = qHTS for identification of novel therapeutic agents for treatment of microphthalmiaassociated transcription factor (MiT) renal cell carcinoma (RCC) (AID 1963991); conditions: CellTiter-Glo, 48 h; for z-score: stronger effect = lower value
# Method in brief: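 Viability of three TFE3-fusion renal carcinoma lines measured by CellTiter-Glo after 48 h treatment with each of 1912 compounds at 11 concentrations. Responses scaled between DMSO (100%) and empty wells (0%) before curve fitting.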
# [4] = qHTS Assay for Modulators of Human Peripheral Myelin Protein 22 (PMP22) Expression/Activity (AID 1967); conditions: Cell-based PMP22 reporter, dual-color luciferase ratio
# Method in brief: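 Mouse MSC80 Schwann cells carrying Pmp22 promoter–green click beetle luciferase plus EF-alpha–red luciferase control, dosed 24 h at 37 °C. Dual-filter luminescence, overlap-corrected; %Activity from green/red ratio normalised to untreated cells, concentration-response curves fitted.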
# [5] = qHTS Validation Assay to Find Inhibitors of Chronic Active B-Cell Receptor Signaling (AID 485345); conditions: ABC-DLBCL cells, chronic BCR signaling reporter
# Method in brief: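 TMD8 ABC-DLBCL cells with dox-inducible green luciferase–IκBα fusion and red native luciferase; compounds 46 uM–3 nM, 4 h at 37C with doxycycline in 0.5% FBS IMDM. Green/red ratio normalized to basal and 10 uM MG-132.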
# [6] = biological target: Phenylethanolamine N-methyltransferase (Homo sapiens) (UniProt P11086); test: Confirmatory Screen for Target Class Profiling of Small Molecule Inhibitors of Methyltransferases (AID 1745852); conditions: MTase-Glo luminescence, SAH detection, recombinant enzyme; measured here: PNMT inhibition potency;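 further: inhibitor potency for blocking SAH production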
# [7] = S16 Schwann cell PMP22 intronic element beta-lactamase assay (AID 624044); conditions: S16 rat Schwann cells, PMP22 element beta-lactamase FRET, 24 h; further: nearly all actives have a fitted effect of over 15% in size
# Method in brief: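 Rat S16 Schwann cells with beta-Lac driven by a PMP22 intronic element, compound-treated 24 h at 37 °C. LiveBLAzer FRET B/G read: 460 nm normalized to potassium clavulanate vs DMSO; 535 nm FRET as viability; concentration-effect curves classified.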
# [8] = biological target: Nicotinamide N-methyltransferase (Homo sapiens) (UniProt P40261); test: Confirmatory Screen for Target Class Profiling of Small Molecule Inhibitors of Methyltransferases (AID 1745852); conditions: MTase-Glo luminescence, SAH detection, recombinant enzyme; measured here: NNMT inhibition potency;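 further: inhibitor potency for blocking SAH production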
# [9] = NCATS anti-infectives library activity on the primary C. elegans qHTS viability assay (AID 1745855); conditions: C. elegans worm area imaging, day 7; measured here: worm number, day 3
# Method in brief: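 Viability is taken from GFP fluorescence of PE254-GFP-FLuc C. elegans imaged by laser cytometry over 7 days. Ten L1 worms per well grow at 21 °C on TOP10 E. coli capsules with titrated compound; levamisole marks toxicity.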
# [10] = measured here: PEO1 parental viability
# [11] = TFE3-RCC viability, measured here: UOK124 cell viability
# [12] = TFE3-RCC viability, measured here: UOK145 cell viability
# [13] = TFE3-RCC UOK109 viability, measured here: UOK109 Z-AUC
# [14] = TFE3-RCC viability, measured here: UOK124 Z-AUC
# [15] = TFE3-RCC viability, measured here: UOK145 Z-AUC
# [16] = measured here: 460 nm blue channel
# Tags describe the fitted curve by direction and shape.
# Chain of UniProt P40261 (P40261 whole entry, looked up): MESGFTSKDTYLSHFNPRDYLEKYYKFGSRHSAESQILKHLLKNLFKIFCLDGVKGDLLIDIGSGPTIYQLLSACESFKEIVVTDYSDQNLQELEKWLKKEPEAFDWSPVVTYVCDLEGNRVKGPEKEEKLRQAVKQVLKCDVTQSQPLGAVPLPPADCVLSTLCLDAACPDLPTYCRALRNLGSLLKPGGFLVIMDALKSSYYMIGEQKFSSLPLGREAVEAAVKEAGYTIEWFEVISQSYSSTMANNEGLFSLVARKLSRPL
# Chain of UniProt P11086 (P11086 whole entry, looked up): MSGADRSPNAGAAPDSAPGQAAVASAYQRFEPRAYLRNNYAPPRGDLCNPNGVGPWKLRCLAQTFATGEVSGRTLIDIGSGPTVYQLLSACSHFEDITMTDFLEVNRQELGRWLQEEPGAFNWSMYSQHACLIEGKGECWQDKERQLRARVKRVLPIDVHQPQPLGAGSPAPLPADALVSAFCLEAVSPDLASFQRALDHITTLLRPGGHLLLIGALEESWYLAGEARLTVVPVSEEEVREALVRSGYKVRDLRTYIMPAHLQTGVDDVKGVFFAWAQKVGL
# Chain of UniProt P50135 (P50135 whole entry, looked up): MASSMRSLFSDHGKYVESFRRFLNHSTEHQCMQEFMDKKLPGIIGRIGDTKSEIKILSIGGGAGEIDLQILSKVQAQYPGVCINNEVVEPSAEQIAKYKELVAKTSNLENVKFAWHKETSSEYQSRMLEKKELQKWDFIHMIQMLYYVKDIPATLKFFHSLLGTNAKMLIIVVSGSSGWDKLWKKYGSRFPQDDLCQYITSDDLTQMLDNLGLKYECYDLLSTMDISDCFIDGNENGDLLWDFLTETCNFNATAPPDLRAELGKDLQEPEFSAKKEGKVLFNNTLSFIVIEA
smiles,measurement,setting,value
COc1cc(N2CCC(N3CCN(C)CC3)CC2)ccc1Nc1ncc(Cl)c(Nc2ccccc2S(=O)(=O)C(C)C)n1,IC50,[1],"19.2 µM [falling, partial curve]"
same,AC50,[2]; [10],"2.19 µM [falling, full curve]"
same,AC50,[2]; measured here: PEO4 viability,"1.74 µM [falling, full curve]"
same,AC50,[3]; [11],"5.9 µM [falling, full curve]"
same,AC50,[3]; [12],"10.5 µM [falling, partial curve, poor fit]"
CCN(CC)CCOc1ccc(Nc2ncc3cc(-c4c(Cl)cccc4Cl)c(=O)n(C)c3n2)cc1,IC50,[1],"7.69 µM [falling, partial curve]"
same,AC50,[2]; [10],"0.549 µM [falling, full curve]"
same,AC50,[2]; measured here: PEO4 viability,"0.389 µM [falling, full curve]"
same,AC50,[3]; [11],"0.469 µM [falling, full curve]"
same,AC50,[3]; [12],"1.32 µM [falling, partial curve]"
CNCc1ccc(-c2[nH]c3cc(F)cc4c3c2CCNC4=O)cc1,IC50,[1],"21.5 µM [falling, partial curve]"
same,z-score,[3]; [13],-0.408
same,z-score,[3]; [14],-0.238
same,z-score,[3]; [15],-0.377
same,AC50,[3]; [12],"37.2 µM [falling, partial curve, poor fit]"
c1ccc2c(Oc3nc(Nc4ccc(N5CCOCC5)cc4)c4ncn(C5CCCCC5)c4n3)cccc2c1,IC50,[1],"5.41 µM [falling, full curve]"
same,AC50,[2]; [10],"13.8 µM [falling, single point]"
same,AC50,[2]; measured here: PEO4 viability,"24.5 µM [falling, single point]"
same,z-score,[3]; [13],-0.199
same,z-score,[3]; [14],0.413
same,AC50,[3]; [11],"18.7 µM [falling, partial curve, poor fit]"
same,z-score,[3]; [15],-0.0614
COC(C)(C)CCn1nc(Nc2c(C)cccc2C)c2cnc(Nc3ccc(OCCN4CCCC4)c(F)c3)nc21,IC50,[1],"13.6 µM [falling, partial curve]"
same,AC50,[2]; [10],"3.89 µM [falling, partial curve]"
same,AC50,[2]; measured here: PEO4 viability,"8.71 µM [falling, partial curve]"
CC(C)N(CCCNC(=O)Nc1ccc(C(C)(C)C)cc1)C[C@H]1O[C@@H](n2ccc3c(N)ncnc32)[C@H](O)[C@@H]1O,IC50,[1],"24.1 µM [falling, partial curve]"
same,AC50,[2]; measured here: PEO4 viability,"19.5 µM [falling, single point]"
CCN(CC)CCCCCCCCOC(=O)c1cc(OC)c(OC)c(OC)c1,AC50,"[4]; measured here: green reporter channel AC50, mouse Pmp22 promoter in mouse Schwann cells","42.6 µM [falling, partial curve]"
same,AC50,"[4]; measured here: red reporter channel AC50, EF-alpha promoter control reporter in MSC80 mouse Schwann cells","37.9 µM [falling, partial curve]"
same,AC50,[5]; measured here: CBG/CBR ratio read-out,"13 µM [falling, partial curve]"
same,AC50,[5]; measured here: CBR control luciferase (viability counter),"18.4 µM [rising, single point]"
same,IC50,[1],"21.7 µM [falling, partial curve]"
CCCS(=O)(=O)c1nc(NC2CC2)cc(-c2ccc3c(ccn3C3CC(C)(C)NC(C)(C)C3)c2)n1,IC50,[1],"6.38 µM [falling, partial curve]"
same,AC50,[2]; [10],"9.17 µM [falling, single point]"
same,AC50,[2]; measured here: PEO4 viability,"5.15 µM [falling, single point]"
CNC(=O)c1ccc2c(C(=Nc3cccc(CN(C)C)c3)c3ccccc3)c(O)[nH]c2c1,IC50,[1],"3.41 µM [falling, full curve]"
same,AC50,[2]; [10],"27.5 µM [falling, single point]"
same,AC50,[2]; measured here: PEO4 viability,"17.4 µM [falling, partial curve, poor fit]"
same,z-score,[3]; [13],-1.01
same,z-score,[3]; [14],0.121
same,AC50,[3]; [11],"11.8 µM [falling, partial curve]"
same,z-score,[3]; [15],0.646
O=C(NCCCNc1nc(Nc2cccc(CN3CCOCC3)c2)ncc1C1CC1)C1CCC1,IC50,[1],"17.1 µM [falling, partial curve]"
same,AC50,[2]; [10],"13.8 µM [falling, partial curve]"
same,AC50,[2]; measured here: PEO4 viability,"6.16 µM [falling, partial curve]"
O=C(Nc1ccc2c(N3CCOCC3)ncnc2c1)c1cccc(Cl)c1,IC50,[1],"7.64 µM [falling, partial curve]"
same,IC50,[6],"24.1 µM [falling, partial curve, poor fit]"
O=C1c2ccccc2C(=O)c2c1cccc2S(=O)(=O)Nc1ccc(Cl)cc1,IC50,[1],"10.8 µM [falling, partial curve]"
same,IC50,[6],"24.1 µM [falling, partial curve]"
NC1=NCC2c3ccccc3Cc3ccccc3N12 (stereo not given),AC50,[7]; [16],"0.251 µM [falling, full curve, poor fit]"
same,IC50,[1],"21.7 µM [falling, single point]"
Cc1ccc2nc(N)[nH]c(=O)c2c1Sc1ccncc1,AC50,[7]; [16],"4.46 µM [falling, full curve, poor fit]"
same,AC50,[7]; measured here: 530 nm viability channel,"4.47 µM [falling, full curve, poor fit]"
same,IC50,[1],"19.2 µM [falling, partial curve]"
O=C1NCc2c1c1c3ccccc3[nH]c1c1[nH]c3ccccc3c21,IC50,[8],"30.6 µM [falling, partial curve, poor fit]"
same,IC50,[6],"19.3 µM [falling, partial curve, poor fit]"
Cc1coc2c1C(=O)C(=O)c1c-2ccc2c1CCCC2(C)C,IC50,[8],"12.1 µM [falling, partial curve]"
same,IC50,[6],"19.2 µM [falling, partial curve]"
same,z-score,[3]; [13],0.293
same,z-score,[3]; [14],0.175
same,AC50,[3]; [11],"4.69 µM [falling, full curve]"
same,z-score,[3]; [15],0.385
Cc1cc(C)c(NS(=O)(=O)c2ccc3c(c2)n(C)c(=O)n3C)c(C)c1,IC50,[8],"21.5 µM [falling, partial curve]"
CC(C)n1nc(Cc2cccc3ccccc23)c2c(N)ncnc21,IC50,[8],"24.1 µM [falling, partial curve, poor fit]"
same,IC50,[6],"19.2 µM [falling, partial curve]"
O=C(c1ccccc1)c1ccc2nc(NC(=O)c3csc(C4CCN(c5ncnc6ccsc56)CC4)n3)[nH]c2c1,IC50,[8],"1.71 µM [falling, full curve]"
same,AC50,[9],"0.515 µM [falling, full curve, poor fit]"
O=C(O)c1cc(O)c2cccc(O)c2c1O[C@@H]1O[C@H](CO)[C@@H](O)[C@H](O)[C@H]1O,IC50,[8],"14.9 µM [falling, partial curve]"
Cc1cccc(N2CCN(C(=O)CCc3nnc4n(CCC(C)C)c(=O)c5ccccc5n34)CC2)c1C,IC50,[8],"7.64 µM [falling, full curve]"
Cc1[nH]c(/C=C2\C(=O)Nc3ccc(S(=O)(=O)N(C)c4cccc(Cl)c4)cc32)c(C)c1C(=O)N1CCN(C)CC1,IC50,[8],"6.07 µM [falling, partial curve]"
same,AC50,[2]; [10],"15.5 µM [falling, partial curve]"
same,AC50,[2]; measured here: PEO4 viability,"15.5 µM [falling, single point]"
COc1cc(C(=O)O)ccc1NC(=O)[C@@H]1N[C@@H](CC(C)(C)C)[C@](C#N)(c2ccc(Cl)cc2F)[C@H]1c1cccc(Cl)c1F,IC50,[8],"30.4 µM [falling, single point]"
CC(C)Cn1c(=O)c2ccccc2n2c(CCC(=O)Nc3ccc(F)c(F)c3)nnc12,IC50,[8],"15.2 µM [falling, partial curve]"
C[C@H]1CN(C(=O)Nc2ccc(F)cc2F)C[C@@H]1c1nc(-c2ccccc2)no1,IC50,[8],"2.43 µM [falling, full curve]"
CC[C@H]1CN(c2nc(N)c(C(N)=O)nc2Cl)CCN1C1CCN(Cc2ccc(Cl)cc2)CC1,IC50,[8],"10.5 µM [falling, partial curve]"
CC1=C(C(=O)OCc2ccccc2)C(c2ccc(-c3ccccc3)cc2)NC(=O)N1CCCCCC(=O)O (stereo not given),IC50,[8],"30.4 µM [falling, single point]"
Nc1ncnc2c1c(-c1cnc3[nH]ccc3c1)nn2C1CCCC1,IC50,[8],"21.5 µM [falling, partial curve]"
same,IC50,[6],"21.5 µM [falling, partial curve]"
same,AC50,[2]; [10],"0.692 µM [falling, full curve]"
same,AC50,[2]; measured here: PEO4 viability,"1.55 µM [falling, full curve]"
same,AC50,[3]; [11],"5.26 µM [falling, partial curve]"
same,AC50,[3]; [12],"3.32 µM [falling, partial curve]"
Cn1cc(-c2ccc(F)c(C(F)(F)F)c2)nc1C1CCN(c2ncnc3[nH]ncc23)CC1,IC50,[8],"2.71 µM [falling, partial curve]"
same,AC50,[2]; measured here: PEO4 viability,"12.3 µM [falling, partial curve]"
Cc1ccn(-c2cc(Cl)ccc2[C@@H](Oc2cc(-c3ccc(C[C@H](N)C(=O)O)cc3)nc(N)n2)C(F)(F)F)n1,IC50,[8],"21.5 µM [falling, partial curve]"
CC(C)(C)c1ccc(C(=O)Nc2cc(Cl)c(Br)cc2C(=O)O)cc1,IC50,[8],"27.1 µM [falling, partial curve]"
N#Cc1cnc2cnc(NCc3cccnc3)cc2c1Nc1ccc(F)c(Cl)c1,IC50,[8],"21.5 µM [falling, partial curve]"
CC1CCN(C(c2ccc(F)cc2)c2ccc(C(C)C(=O)O)cc2-c2ccc(C(F)(F)F)cc2)CC1 (stereo not given),IC50,[8],"21.5 µM [falling, partial curve]"
C=C(F)c1sc(CNCCCNc2cc(=O)c3ccccc3[nH]2)c(C)c1Br,IC50,[8],"21.5 µM [falling, partial curve]"
COc1ccc(CCNC(=O)CCc2nnc3n(CC(C)C)c(=O)c4ccccc4n23)cc1OC,IC50,[8],"21.5 µM [falling, partial curve]"
Cn1c(=O)c2ccnn2c2ccc(C(=O)NCC3CCN(Cc4ccccc4F)CC3)cc21,IC50,[8],"24.1 µM [falling, partial curve]"
O=C(NCc1cccc(Cl)c1)c1sc(=S)n2c1[nH]c(=O)c1cc3c(cc12)OCO3,IC50,[8],"24.1 µM [falling, partial curve]"
same,IC50,[6],"27.1 µM [falling, single point]"
COC1CCN(c2cc(-c3ccsc3)nc3c(C)noc23)CC1,IC50,[8],"35 µM [falling, partial curve, poor fit]"
